Laboratory results from the supplement of paper PMC4604168 (melanoma cell lines).
Some of the results follow. Repeats are few or missing, and single values can be far off.

Key:
Experiment in all cases: cell count relative to DMSO control; melanoma cells; higher = more viable cells
Details in all cases: library dose: low library concentration; 72 h
[1] = tested on: COLO792
[2] = tested on: COLO800
[3] = tested on: COLO829
[4] = tested on: G361
[5] = tested on: IPC-298
[6] = tested on: IST-MEL1
[7] = tested on: LB2518-MEL
[8] = tested on: LOXIMVI
[9] = tested on: MEL-HO
[10] = tested on: MZ2-MEL
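Note: cell number obtained by counting DAPI-stained nuclei in high-throughput microscope images with image analysis software, screen run in 1,536-well plates.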

SMILES	cell count [1] [%]	cell count [2] [%]	cell count [3] [%]	cell count [4] [%]	cell count [5] [%]	cell count [6] [%]	cell count [7] [%]	cell count [8] [%]	cell count [9] [%]	cell count [10] [%]
O=C1NC(=O)/C(=C/c2ccc(-c3ccc(F)cc3O)o2)S1 + Oc1nc(-c2ccc(C(F)(F)F)cc2)nc2c1CSCC2 [XAV939] (first compound 1 µM, partner dose 2 µM)	77	91.5	88.5	72.1	93.6	106	96.5	86.3	85.9	96
COc1ccc(COc2ccc(Cc3cnc(N)nc3N)cc2OC)cc1 + Oc1cc(-c2nc(-c3ccccc3)[nH]c2-c2ccncc2)ccc1Cl [L779450] (first compound 1 µM, partner dose 0.2 µM)	93.1	86.7	121	93.7	83	113	99.7	94.8	93.5	79.2
COc1cc2ncnc(Nc3ccc(Oc4ccccc4)cc3)c2cc1OC + Cn1cc(/C=C2\C(=O)Nc3cccnc32)c2ccccc21 [GW441756] (first compound 2 µM, partner dose 0.4 µM)	77.5	109	94.7	92.1	93.8	98.3	145	119	97.8	82.5
c1cc(-c2cnn3cc(-c4ccc(OCCN5CCCCC5)cc4)cnc23)ccn1 [Dorsomorphin] + CC(C)CCN1c2nc(Nc3cc(F)c(O)c(F)c3)ncc2N(C)C(=O)C1C [BID1870] (first compound 0.4 µM, partner dose 0.2 µM)	93.2	104	111	91.4	101	98.6	108	80.9	110	95.1
Oc1nc(-c2ccc(C(F)(F)F)cc2)nc2c1CSCC2 + O=c1cc(-c2cccc3c2Sc2ccccc2S3)oc(N2CCOCC2)c1 [KU55933] (first compound 2 µM, partner dose 1 µM)	84	109	119	89	95.2	101	122	131	99.3	98.7
O=C(O)C(=O)Nc1sc2c(c1C(=O)O)CCNC2 + O=C1NC(=O)/C(=C/c2ccc(-c3ccc(F)cc3O)o2)S1 [AS252424] (first compound 1.66667 µM, partner dose 1 µM)	105	105	96.2	100	97.9	98.3	95	148	104	97.3
Cn1cc(/C=C2\C(=O)Nc3cccnc32)c2ccccc21 + O=c1cc(-c2cccc3c2Sc2ccccc2S3)oc(N2CCOCC2)c1 [KU55933] (first compound 0.4 µM, partner dose 1 µM)	106	130	119	80.8	94.4	97.4	115	98.5	79.1	91
CCN(CC)CCCCNc1ncc2cc(-c3cc(OC)cc(OC)c3)c(NC(=O)NC(C)(C)C)nc2n1 + O=C1NC(=O)/C(=C/c2ccc(-c3ccc(F)cc3O)o2)S1 [AS252424] (first compound 0.1 µM, partner dose 1 µM)	108	98.1	96.2	87.4	99.8	96.3	95.2	117	90.1	102
Cc1cc([N+](=O)[O-])ccc1NS(=O)(=O)c1cc(Cl)ccc1Cl + COc1cc(N2CCC(N3CCN(C)CC3)CC2)ccc1Nc1ncc(Cl)c(Nc2ccccc2S(=O)(=O)C(C)C)n1 [NVP-TAE684] (first compound 1 µM, partner dose 0.08 µM)	94.5	128	96.5	85.9	92.3	87.3	99.1	116	74.5	98.7
COc1ccc(COc2ccc(Cc3cnc(N)nc3N)cc2OC)cc1 + O=S(=O)(c1ccccc1)N(CC(F)(F)F)c1ccc(C(O)(C(F)(F)F)C(F)(F)F)cc1 [T0901317] (first compound 1 µM, partner dose 1.4 µM)	120	92.3	102	99.9	93.5	105	97.4	98	95.9	95.8
Cn1cc(/C=C2\C(=O)Nc3cccnc32)c2ccccc21 + CCCCCCCCCCCC1=C(O)C(=O)C=C(O)C1=O [Embelin] (first compound 0.4 µM, partner dose 1.2 µM)	92.9	92.8	105	97.6	88.3	98.5	113	92.4	99.5	94.1
O=S(=O)(c1ccccc1)N(CC(F)(F)F)c1ccc(C(O)(C(F)(F)F)C(F)(F)F)cc1 + COc1cc2ncnc(Nc3ccc(Oc4ccccc4)cc3)c2cc1OC [SrcI1] (first compound 1.4 µM, partner dose 2 µM)	103	117	89.9	103	93.8	104	121	100	110	103
N#Cc1c(O)c2c(-c3ccc(-c4ccccc4O)cc3)csc2[nH]c1=O + O=C(O)C(=O)Nc1sc2c(c1C(=O)O)CCNC2 [TCS401] (first compound 2 µM, partner dose 1.66667 µM)	95	88	70.6	97.5	99.4	106	119	92.8	94.8	98.9
O=S(=O)(c1ccccc1)N(CC(F)(F)F)c1ccc(C(O)(C(F)(F)F)C(F)(F)F)cc1 + Cn1cc(/C=C2\C(=O)Nc3cccnc32)c2ccccc21 [GW441756] (first compound 1.4 µM, partner dose 0.4 µM)	101	114	78.5	82.3	89.2	102	117	103	93	92
O=S(=O)(c1ccccc1)N(CC(F)(F)F)c1ccc(C(O)(C(F)(F)F)C(F)(F)F)cc1 + O=C1NC(=O)/C(=C/c2ccc(-c3ccc(F)cc3O)o2)S1 [AS252424] (first compound 1.4 µM, partner dose 1 µM)	100	92.9	99.9	89.4	90.2	96	105	85	93.5	95.4
COc1ccc(COc2ccc(Cc3cnc(N)nc3N)cc2OC)cc1 + Oc1nc(-c2ccc(C(F)(F)F)cc2)nc2c1CSCC2 [XAV939] (first compound 1 µM, partner dose 2 µM)	92.2	147	92.6	89.2	99.2	97.5	99.6	104	104	93.8
N#Cc1c(O)c2c(-c3ccc(-c4ccccc4O)cc3)csc2[nH]c1=O + Cc1cc([N+](=O)[O-])ccc1NS(=O)(=O)c1cc(Cl)ccc1Cl [FH535] (first compound 2 µM, partner dose 1 µM)	91.5	97.8	87.6	83.7	99.6	83.6	97.8	75.9	109	98.4
COC(=O)c1sccc1S(=O)(=O)Nc1ccc(Nc2ccccc2)cc1OC + COc1ccc2c(c1)CCC1C2CCC2(C)C(NCCCCCCN3C(=O)C=CC3=O)CCC12 [U73122] (first compound 1 µM, partner dose 0.4 µM)	83.8	95.3	87.8	101	98.8	94.5	102	137	115	90.3
N#Cc1c(O)c2c(-c3ccc(-c4ccccc4O)cc3)csc2[nH]c1=O + COc1ccc(-c2ccc3c(N4CCOCC4)nc(N4C[C@@H](C)O[C@@H](C)C4)nc3n2)cc1CO [KU0063794] (first compound 2 µM, partner dose 0.02 µM)	97.4	101	87.1	106	97.2	100	105	121	91.4	98.6
COc1cc2ncnc(Nc3ccc(Oc4ccccc4)cc3)c2cc1OC + O=c1cc(-c2cccc3c2Sc2ccccc2S3)oc(N2CCOCC2)c1 [KU55933] (first compound 2 µM, partner dose 1 µM)	98.7	93.4	128	93.1	87.8	112	144	104	90.1	90.4
COc1cc2ncnc(Nc3ccc(Oc4ccccc4)cc3)c2cc1OC + Oc1cc(-c2nc(-c3ccccc3)[nH]c2-c2ccncc2)ccc1Cl [L779450] (first compound 2 µM, partner dose 0.2 µM)	102	139	100	97.8	81.1	99.9	93.3	111	112	79.5
N#Cc1c(O)c2c(-c3ccc(-c4ccccc4O)cc3)csc2[nH]c1=O + COc1cc2ncnc(Nc3ccc(Oc4ccccc4)cc3)c2cc1OC [SrcI1] (first compound 2 µM, partner dose 2 µM)	92.4	152	97.7	91	91.2	91.8	115	108	104	92.1
Oc1cc(-c2nc(-c3ccccc3)[nH]c2-c2ccncc2)ccc1Cl + O=C1NC(=O)/C(=C/c2ccc(-c3ccc(F)cc3O)o2)S1 [AS252424] (first compound 0.2 µM, partner dose 1 µM)	111	87.3	99	77.2	94.5	96.7	103	112	92.3	90.1
COC(=O)c1sccc1S(=O)(=O)Nc1ccc(Nc2ccccc2)cc1OC + COc1ccc(COc2ccc(Cc3cnc(N)nc3N)cc2OC)cc1 [GW2580] (first compound 1 µM, partner dose 1 µM)	96.5	62.6	113	106	98.3	104	106	113	100	95.1
